Results as given in PubChem BioAssay AID1346428 (National Center for Advancing Translational Sciences (NCATS), 2018).
“And” between values parts separate entries of the source, which are not always exact repeats. Identical values can stand only once. Screen size: about 48,000 compounds; about 1,200 (2.5%) were called active. About 2% were inconclusive and are not listed.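 Rule for the calls: active = activation of at least 60% and not above a set upper limit (about 1 call in 100 departs from these limits); inconclusive = activation of 40% to 60%, or above that upper limit; inactive = activation under 40%.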 Some of the results follow.

The molecules below were run against Probable G-protein coupled receptor 32 (Homo sapiens) (UniProt O75388) (assay: qHTS for Agonists of Human Resolvin D1 Receptor DRV1). Conditions: CHO-K1 GPR32 beta-arrestin PathHunter luminescence, 90 min; at 76.9 µM; stronger effect = higher value; zero percent set by DMSO-only wells.
Summary of the method: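 Luminescent readout of beta-Gal complementation quantifies ligand-induced beta-arrestin association with GPR32 in CHO-K1 cells; 90 min compound incubation at 37 °C, detection 1 h at room temperature.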
Note: 0% is about no effect.

Chain of UniProt O75388 (O75388 whole entry, looked up): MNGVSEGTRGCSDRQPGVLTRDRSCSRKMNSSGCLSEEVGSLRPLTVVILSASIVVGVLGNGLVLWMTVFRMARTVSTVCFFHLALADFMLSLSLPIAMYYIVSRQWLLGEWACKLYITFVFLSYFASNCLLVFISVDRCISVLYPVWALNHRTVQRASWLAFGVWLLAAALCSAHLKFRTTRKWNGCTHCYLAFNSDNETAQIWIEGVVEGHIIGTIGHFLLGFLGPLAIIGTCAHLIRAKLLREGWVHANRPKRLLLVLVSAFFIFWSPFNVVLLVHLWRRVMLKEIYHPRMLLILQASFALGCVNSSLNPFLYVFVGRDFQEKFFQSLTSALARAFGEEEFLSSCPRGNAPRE

activation, active:
CCc1c(C)sc2c1CCN(Cc1cccc(OC)c1)C2c1ccccc1 (configuration not stated) 61.4%
CCCCCCCCCCCCCCCCOP(=O)([O-])OCC[N+](C)(C)C 93.5%
CC1=C(C(N)=O)C(c2cccc(O)c2)n2ncnc2N1 (configuration not stated) 60.7%

activation, inactive:
COc1cccc(OC)c1C(=O)N[C@@H]1C(=O)N2[C@@H]1SC(C)(C)[C@@H]2C(=O)O -8.61%
COc1ccc(-c2cn3c(n2)sc2cc(C(=O)NCCC4=CCCCC4)ccc23)cc1 -20.9%
O=c1c2cnn(-c3ccc(F)cc3)c2ncn1Cc1ccccc1Cl -4.94%
Cc1cc(C)n(CCc2nc3c4ccccc4nc(SCc4ccc(F)cc4)n3n2)n1 -10%
COc1ccc(OC)c(NC(=O)C(C)n2c(=O)cc(C)c3c(C)nn(-c4ccccc4)c32)c1 (configuration not stated) -1.87%
CCc1ccc(NCc2cc3ccc(OC)cc3n(CC(=O)Nc3ccccc3C)c2=O)cc1 -12.5%
COc1ccc(NC(=O)CSc2nc(-c3cccs3)cc(C(F)(F)F)n2)cc1Cl 33.8%
Cc1ccc(CSC2=Nc3ccccc3C3=NC(CCC(=O)NC4CCCCC4)C(=O)N23)cc1 (configuration not stated) -29.6%
COC(=O)c1ccc(Cl)cc1NC(=O)Nc1nnc(N(C)C2CCCCC2)s1 7.58%
COc1ccc(CCC(=O)NCc2ccc3c(c2)CCN3C(=O)c2ccc(Cl)cc2)cc1 -18%
Cc1ccc(CNC(=O)C(NS(=O)(=O)c2cccs2)C(C)C)cc1 (configuration not stated) -4.38%
CCCCN(CCCC)CCNC(=O)Cn1nc(CC)n2c(cc3sccc32)c1=O -5.54%
CCC1=Nc2cc(C(=O)NCCc3ccc(OC)c(OC)c3)ccc2Sc2ccccc21 -4.46%
CCc1ccc(C(=O)CC2(O)C(=O)N(CCc3ccccc3)c3ccc(Br)cc32)cc1 (configuration not stated) 9.96%
CC(=O)c1cccc(NC(=O)CSc2nc3c(c(=O)[nH]2)CCC3)c1 23%
CCc1ccc2oc(C(=O)Nc3ccccc3OC)cc(=O)c2c1 4.56%
COc1ccc(-n2nc3ccc(NC(=O)c4c(OC)cccc4OC)cc3n2)cc1 -0.963%
O=C(Cn1c(=O)n(-c2ccc(F)cc2)c(=O)c2sc3ccccc3c21)NC1CCCC1 10.8%
CCCCCCCCCC(=O)NC(CN1CCOCC1)[C@H](O)c1ccccc1 (some centres not stated) -19.8%
CCc1nc2ccccc2n2c(-c3ccc(C)cc3)c3c(=O)n(C)c(=O)n(C)c3c12 23.7%
Cc1cc(C)cc(NC(=O)C2CCCN(S(=O)(=O)c3cccc4nsnc34)C2)c1 (configuration not stated) -7.56%
Fc1ccc(Nc2nc(SCc3ccccc3Cl)nc3ccccc23)cc1 -10%
Cc1cccc(N2CCN(C(c3ccccc3)c3nnc(-c4ccccc4F)o3)CC2)c1C (configuration not stated) -36.6%
CCOC(=O)c1c(C)[nH]c(C)c1S(=O)(=O)NCC(=O)Nc1ccc(C)cc1C 18.7%
COc1ccc(CSc2nc3ccncc3n2CC(=O)Nc2cc(C)cc(C)c2)cc1 5.98%
Cc1csc2nc(COC(=O)CNC(=O)c3ccc(F)cc3)cc(=O)n12 10.6%
NC(=O)C1CCN(C(=O)c2ccc3c(c2)N(Cc2cccc(Cl)c2)C(=O)c2ccccc2S3=O)CC1 (configuration not stated) -2.93%
CCOC(=O)c1c(C)[nH]c(CCC(=O)NCc2ccc(OC)c(OC)c2)c1C -17.8%
CCn1c2ccccc2c2nnc(N3CCN(c4cccc(Cl)c4)CC3)nc21 -22%
COc1ccc(S(=O)(=O)N2CCC(N3CCN(Cc4ccccc4)C(=O)C3=O)CC2)cc1 -7.63%
Cc1nc(C2CCCCC2)c(-c2ccc(S(N)(=O)=O)c(F)c2)o1 1.57%
Cc1ccc(N2CCn3c2nc2c3c(=O)n(C/C=C/c3ccccc3)c(=O)n2C)cc1C -7.46%
CCc1ccc(NC(=O)CCc2c(C)nc3nc(-c4cc(OC)cc(OC)c4)nn3c2C)cc1 -1.78%
COCCCNC(=O)Cn1c(=O)n(-c2cccc(C)c2)c(=O)c2c1c1cc(C)ccc1n2C -10.3%
COc1ccc(CNC(=O)Cc2c(C)c3cc4c(C)coc4cc3oc2=O)cc1 -5.36%
Cc1cc(NS(=O)(=O)c2ccc(N)cc2)nc(C)n1 6.41%
Cc1ccc(CN2CCSc3ccc(C(=O)NCc4ccc(OC(C)C)cc4)cc32)cc1 -35%
COc1ccc(-c2noc(CCCC(=O)Nc3cccc(Cl)c3C)n2)cc1 6.59%
COc1ccccc1-c1c(C)nn2c(-c3ccccc3)cc(-c3ccccc3)nc12 -11.1%
CCOc1ccc(C2=NC(c3ccncc3)=Nc3ccc(C)cc3N2)cc1OCC -8.14%
Cc1ccc(OCCn2cc(C(=O)c3cccs3)c3ccccc32)cc1 -30.6%
COc1cccc(/C=C/c2onc(C)c2S(=O)(=O)N2CCC(C(=O)N3CCCCC3)CC2)c1 -12%
COc1ccc(C2CC(=O)c3c([nH]c(C(=O)OCc4ccccc4)c3C)C2)cc1 (configuration not stated) 30.5%
COCc1cc(C)nc2sc(C(=O)Nc3ccccc3O)c(N)c12 -15.9%
COc1ccc(N(Cc2ccccc2)C(=O)c2nc(S(C)(=O)=O)ncc2Cl)cc1 -7.64%
Cc1ccccc1NC(=O)c1cc2c(-c3ccccc3)nn(-c3ccccc3)c2s1 10.6%
COc1ccccc1NC(=O)C1=C(C)Nc2c(C(=O)Nc3ccc(C)cc3)cnn2C1c1cccc(OC)c1OC (configuration not stated) -1.42%
COc1ccc(CNC(=O)Cn2c(=O)nc(-c3ccccc3)c3cc(Cl)ccc32)cc1OC -15.6%
CCCSCCCNC(=O)C1CCN(C(=O)c2cnn(-c3ccccc3)c2-n2cccc2)CC1 -15.4%
COc1cccc(C(=O)Nc2ccc(-n3nncc3-c3ccccc3)cc2)c1OC -16.6%
Cc1cccc(N2CCN(C(=O)Cn3nc(C)c4sc5ccccc5c4c3=O)CC2)c1C -4.14%
Cc1ccsc1/C=C/C1=NCCCN1C 2.55%
O=C(COc1ccc(Cl)cc1)N(Cc1ccco1)Cc1ccco1 -4.23%
COc1ccc(OC)c(NC(=O)CSC2=Nc3ccccc3C3=NC(CCC(=O)NCc4ccccc4)C(=O)N23)c1 (configuration not stated) -3.95%
Cc1nc2ccn(Cc3cccs3)c(=O)c2cc1C(=O)NCc1ccc(Br)cc1 -15%
COc1ccccc1CNC(=O)CCC(=O)N1CC(C)Sc2ccccc21 (configuration not stated) -21.2%
Cc1c(C(=O)N(C)C)sc2c1c(=O)n(-c1ccc(Cl)c(Cl)c1)c(=O)n2CC(=O)C(C)(C)C -6.67%
COc1ccc(C(=O)Nc2cccc(-c3cn4ccsc4n3)c2)c(OC)c1 -12.2%
Cc1cccc(N2CCN(C(=O)CN3C(=O)COc4ccc(S(=O)(=O)N5CCC(C)CC5)cc43)CC2)c1C -6.86%
CCc1nn(CC(=O)N2CCC(C)CC2)c(=O)c2cc3occc3n12 -7.72%
CCCN(c1ccc(C(C)C)cc1)S(=O)(=O)c1ccc2c(c1)n(C)c(=O)c(=O)n2C -1.95%
Cc1csc2nc(COC(=O)c3cccc(NC(=O)c4cccc(Cl)c4)c3)cc(=O)n12 -5.29%
Cc1ccc(NC(=O)CSc2nc3ccccc3n2CC(=O)N2CCC(C)CC2)cc1C 5.38%
CCOc1ccc(N(CC(=O)Nc2cc(OC)cc(OC)c2)S(=O)(=O)c2c(C)[nH]c(=O)[nH]c2=O)cc1 -14.9%
CCC(=O)Oc1cc(C(C)(C)C)cc2cc(-c3nc(-c4ccc(OC)cc4OC)no3)c(=O)oc12 -0.602%
Cc1ccc(-n2nc3c(N4CCC(C(=O)NC5CCC(C)CC5)CC4)nnc(C)c3c2C)cc1 (configuration not stated) 14.7%
Cc1ccc2sc(N(Cc3cccnc3)C(=O)Cc3ccccc3)nc2c1C -15.3%
O=C(c1cccs1)c1cn(CCOc2ccc(Cl)cc2)c2ccccc12 -10.4%
Cc1ccc(C(=O)c2cn(Cc3ccccc3F)c3cc4c(cc3c2=O)OCCO4)cc1 27.1%
C[N+](C)(C)CCOC(=O)CCC(=O)OCC[N+](C)(C)C 0.499% and 1.01%
CCOc1ccccc1NC(=O)C1CCC(CNS(=O)(=O)c2ccc3c(c2)CCCC(=O)N3)CC1 (configuration not stated) -16.9%
Cc1ccc(C)c(NC(=O)CN(C)S(=O)(=O)c2cccc3cccnc23)c1 -4.74%
Cc1ccc(Cl)cc1N1CCN(CCCNC(=O)Cn2ncc3c([nH]c4ccccc43)c2=O)CC1 -7.97%
Cc1ccc(C(=O)Nc2ccccc2C(=O)OCc2cc(=O)n3nc(C(C)C)sc3n2)cc1 -9.73%
COc1ccc(CC(=O)NCCS(=O)(=O)N2CCN(c3ccccc3F)CC2)cc1OC -17.6%
Cc1ccc(C)c(NC(=O)CSc2nc(-c3ccccc3)c(C#N)c(=O)[nH]2)c1 27.9%
CCOc1ccc(CCNC(=O)c2cccc(Nc3nc4ccccc4nc3-n3nc(C)cc3C)c2)cc1OCC -11.5%
O=C(CC1N=C2c3ccccc3N=C(SCc3ccc(F)cc3)N2C1=O)NC1CCCCC1 (configuration not stated) -16.2%
CCOc1ccc(N(C(=O)c2ccc(Cl)cc2)S(=O)(=O)c2ccc3c(c2)n(C)c(=O)n3C)cc1 -6.23%
